Out of some 410,000 compounds screened, about 260 (0.063%) were called active. The shares of active, inactive and inconclusive entries below differ from those in the screen. Calls come from the whole dose curve; as a rule, active = well fitted activation curve with a large enough effect; inconclusive = small, poorly fitted or top-dose-only effect; inactive = no such curve, though single readings can be large or run the other way. Potencies of inconclusive entries are left out as doubtful fits.
assay: qHTS for compounds that reverse cellular toxicity of Amyloid beta (A-beta) peptide in yeast: Primary Screen; details: yeast expressing A-beta42, growth rescue, OD600, 48 h; growth rescue: at 46.1 µM (top of the series), 0% DMSO, 100% iron-clioquinol control; note: nearly all actives have a fitted effect of over 55% in size
Procedure, shortened: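 Yeast A-beta toxicity model in growth medium with pinned compounds, 48 h at 30 C; growth read as absorbance at 600 nm. Normalized to FeCl3/clioquinol equimolar mix (positive) and DMSO (negative).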
Potency is the fitted concentration of half-maximal effect; tags give direction and shape of the fitted curve.

Compound | Potency | growth rescue
COc1ccccc1CNC(=O)c1ccc2c(c1)sc1nc(-c3ccc(F)cc3)cn12 | inactive | 
COc1ccc2oc(C(=O)Nc3ccc(S(=O)(=O)N(C)C4CCN(C)CC4)cc3)c(C)c2c1 | inactive | 
CCC(C)Sc1ccc(-c2nc3cnccn3c2NC2CCCCC2)cc1 (centres undefined) | inactive | 
CCOc1cccc2cc(-c3nnc(Nc4ccc(F)c(Cl)c4)s3)c(=O)oc12 | inactive | 
CC1CCCC(NS(=O)(=O)c2cc(Br)cnc2N)C1C (centres undefined) | inconclusive [activator, single point] | 
COc1cc2nc(NC(=O)c3ccc(F)cc3Cl)sc(=O)c2cc1OC | inactive | 
c1ccc2c(c1)oc1c(NCc3ccc4c(c3)OCO4)ncnc12 |  | inconclusive: 30.1% [activator]
COc1ccc(C2C3=C(CCCC3=O)Nc3n[nH]c(C)c32)cc1OC (centres undefined) | inconclusive [activator, single point] | 
CCCOc1ccc(C(=O)c2ccccc2C(=O)O)cc1OCCC | inconclusive [activator, full curve, poor fit] | 
COC(=O)[C@@]12CCCCN1[C@H](c1ccc(-c3cccc(Cl)c3)c(OC)c1)[C@@H]1C(=O)N(C)C(=O)[C@@H]12 | inconclusive [activator, partial curve, poor fit] | 
CCN1C(=O)[C@@H]2[C@@H](c3ccc(-c4ccccc4)cc3)N3CCC[C@@]3(C(=O)OC)[C@@H]2C1=O | inactive | 
O=C(NC1CCCCCC1)c1nnc(Cc2ccc(Cl)cc2)o1 | inconclusive [activator, partial curve, poor fit] | 
CC(C)c1nnc(N2C(=O)c3oc4ccccc4c(=O)c3C2c2cccc(O)c2)s1 (centres undefined) | inactive | 
Cc1[nH]c2ccccc2c1SCc1ccccc1 | inconclusive [activator, single point] | 
Cc1ccc(CN2C(=O)C(=O)N(CC(N)=O)C2=O)cc1 | inconclusive [activator, single point] | 
CC(=O)c1cccc(NC(=O)C2C3C=CC(C4CC34)C2C(=O)O)c1 (centres undefined) | inconclusive [activator, partial curve, poor fit] | 
O=C(Nc1nc(-c2ccccc2)c(-c2ccccc2)o1)c1ccc(F)cc1 | active: 11.2 µM | 
Cc1ccc(S(=O)(=O)Nc2nnc(C(C)(C)C)s2)cc1 | inconclusive [activator, full curve] | 
CCOc1ccc(NC(=O)CN(C)C(=O)c2ccccc2Cc2ccccc2)cc1OCC | inconclusive [activator, full curve, poor fit] | 
CC(CC(=O)OCC(=O)NCc1ccc(Cl)cc1)c1ccccc1 (centres undefined) | inconclusive [activator, single point] | 
Cc1ccc(NC(=S)NC(=O)c2cncc(Br)c2)c(C)c1 | inconclusive [activator, partial curve, poor fit] | 
CCn1c(C(=O)NCc2cccc(Br)c2)cc2oc3ccccc3c21 | inactive | 
CCC1CN(C(=O)N2CCC(C(=O)NCc3ccc(OC)cc3OC)CC2)c2cc(C)ccc2O1 (centres undefined) | inactive | 

Compound | Potency | growth rescue
Cc1[nH]c2ccccc2c1C(=O)COc1ccccc1 | inconclusive [activator, partial curve, poor fit] | 
Cc1ccc(NC(=O)COC(=O)CN2C(=O)C3CCCCC3C2=O)cc1C (centres undefined) | inactive | 
CCCNS(=O)(=O)c1ccc(OCC(=O)N2CCCC2)cc1 | inconclusive [activator, partial curve] | 
Cc1cc(C(F)(F)F)n2nc(C(=O)O)c(Cl)c2n1 | inactive | 
CCN(CCNC(=O)CN1CCN(Cc2ccc(Cl)cc2)C1=O)c1ccccc1 | inconclusive [activator, partial curve, poor fit] | 
O=C(N/N=C/c1ccccn1)c1ccc(Cl)cc1 | inconclusive [activator, single point] | 
COc1ccc2c(c1)CCc1c(C(=O)NCC(C)C)noc1-2 | inactive | 
O=S(=O)(Cc1ccc(Cl)cc1)N1CCCC1 | inconclusive [activator, full curve] | 
CC(SC1=NCCN1S(=O)(=O)c1ccccc1)c1ccccc1 (centres undefined) | inconclusive [activator, partial curve, poor fit] | 
CC(=O)N=C(N)Sc1nc2ccccc2[nH]1 | inconclusive [activator, partial curve, poor fit] | 
O=C(O)Cc1coc2ccc3ccccc3c12 | inconclusive [activator, partial curve, poor fit] | 
CCOC(=O)[C@H]1[C@H]2COc3ccc(Cl)cc3[C@@H]2N2C(=O)c3cc(Br)ccc3NC(=O)[C@@]12C | inconclusive [activator, partial curve, poor fit] | 
COc1ccc(NC(=O)N2C3CCCC2CC(NC(=O)C2CC2)C3)cc1 (centres undefined) | inactive | 
COc1ccccc1CCNC(=O)Cn1ccc2cc(S(=O)(=O)N3CCCCCC3)ccc21 | inactive | 
CN(C)NC(=S)Nc1cccc(C(F)(F)F)c1 | inconclusive [activator, partial curve, poor fit] | 
CC(=O)Oc1ccc2c3c(c(=O)oc2c1)CCCC3 | inconclusive [activator, partial curve, poor fit] | 
CC(=O)N1CCc2cc(S(=O)(=O)NCCC(=O)NCCc3ccccc3)ccc21 | inconclusive [activator, single point] | 
O=C(c1noc2c1CCCC2)N1CCc2c([nH]c3ccccc23)C1c1ccccn1 (centres undefined) | inconclusive [activator, single point] | 
O=S(=O)(O)c1nc2ccccc2n1Cc1ccc(Cl)cc1Cl | inconclusive [activator, partial curve, poor fit] | 
COc1ccc2oc(C(=O)OCc3nnc(-c4ccccc4)o3)c(C)c2c1 | inactive | 
COc1ccc(C(=O)COC(=O)CNC(=O)c2cccc(OC(F)F)c2)cc1 | inconclusive [activator, single point] | 
COCCNC(=O)c1c(N)n(-c2cccc(C)c2)c2nc3ccccc3nc12 | inactive | 
COc1ccccc1NC(=S)NCc1ccc2c(c1)cc(C)n2C | inconclusive [activator, single point] | 

Compound | Potency | growth rescue
Cc1cccc(OCC(=O)Nc2ccc3c(c2)nc(CCNC(=O)c2ccco2)n3C)c1 | inactive | 
COc1ccc(N2C(=O)NC3CC2(C)Oc2ccccc23)cc1 (centres undefined) | inactive | 
O=C(Nc1nc(-c2ccccn2)cs1)C1CCCC1 | inconclusive [activator, partial curve] | 
O=C(CSc1n[nH]c(-c2ccccc2Cl)n1)N1CCN(c2ccccc2F)CC1 | inactive | 
Cc1ccc(OCCCCn2c(CCNC(=O)C(C)(C)C)nc3ccccc32)cc1 | inconclusive [activator, full curve] | 
Cc1ccccc1-c1noc(CSc2nnc(-c3ccncc3)n2-c2ccc(F)cc2)n1 | inconclusive [activator, partial curve, poor fit] | 
Cc1ccc(CNC(=O)c2cc(=O)c3ccccc3o2)cc1 | inconclusive [activator, single point] | 
Cc1cccc(C)c1NC(=O)C(c1cc2ccccc2o1)N1CCC(c2ccccc2)CC1 (centres undefined) | inconclusive [activator, single point] | 
CCN1C(=O)[C@H]2[C@@H](c3ccc(-c4ccccc4)cc3)N3CCC[C@@]3(C(=O)OC)[C@H]2C1=O | inconclusive [activator, partial curve, poor fit] | 
CCOC(=O)c1sc(/S(C)=N\S(=O)(=O)c2cccc(Cl)c2)c2c1CCC=C2 (centres undefined) | inconclusive [activator, single point] | 
Nc1ccc(-c2nc3cc([N+](=O)[O-])ccc3o2)cc1 | inactive | 
COCCN(C(=S)Nc1ccc(C)cc1C)C(C)c1cccs1 (centres undefined) | inconclusive [activator, single point] | 
CN(CCC#N)c1ccc(C=C(C#N)c2ccc(Br)cc2)cc1 | inconclusive [activator, partial curve, poor fit] | 
Cc1ccc(/C=N/Nc2nc3ccccc3s2)o1 | inconclusive [activator, full curve] | 
Cc1ccc(C2NC(=O)Cc3ccccc32)cc1 (centres undefined) | inconclusive [activator, partial curve, poor fit] | 
Cc1ccc(-c2csc(Nc3ccccn3)n2)cc1 | inconclusive [activator, single point] | 
O=C(CSC1=NNC(c2ccccn2)S1)Nc1ccc(C(F)(F)F)cc1 (centres undefined) | inconclusive [activator, single point] | 
CC(Oc1ccc(Cl)cc1Cl)C(=O)N(Cc1ccco1)C1CCS(=O)(=O)C1 (centres undefined) | inactive | 
O=C1C(Cc2ccccc2)NC(=S)N1Cc1ccccc1 (centres undefined) | inconclusive [activator, single point] | 
Cc1cccc2sc(N3CCN(C(=O)C4COc5ccccc5O4)CC3)nc12 (centres undefined) | inconclusive [activator, single point] | 
CC(NC(=O)Cn1c(-c2cccs2)cc2cc(F)ccc21)c1ccccc1 (centres undefined) | inactive | 
Cc1nc2nc(NC(=O)c3ccc(Cl)cc3)[nH]n2c(=O)c1Cc1ccccc1 | inactive | 
Cc1cc(C)n(CCOc2ccc(Cl)cc2Cl)n1 | inconclusive [activator, single point] | 
